# Laboratory results as given in paper PMC4336329 (PLoS ONE, 2015).
# About 14,000 (4.5%) of roughly 310,000 compounds showed an effect of 50% or more. The effect is printed as a negative number. This is one part of the list.
# Target: human ether-à-go-go-related gene (hERG) potassium channel (human, UniProt Q12809)
# Test: primary screen, population patch clamp on CHO cells stably expressing hERG
# 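Further: peak tail current of the secondary pulse compared with the same well before compound.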
# Sequence of human ether-à-go-go-related gene (hERG) potassium channel (Q12809 whole entry, looked up): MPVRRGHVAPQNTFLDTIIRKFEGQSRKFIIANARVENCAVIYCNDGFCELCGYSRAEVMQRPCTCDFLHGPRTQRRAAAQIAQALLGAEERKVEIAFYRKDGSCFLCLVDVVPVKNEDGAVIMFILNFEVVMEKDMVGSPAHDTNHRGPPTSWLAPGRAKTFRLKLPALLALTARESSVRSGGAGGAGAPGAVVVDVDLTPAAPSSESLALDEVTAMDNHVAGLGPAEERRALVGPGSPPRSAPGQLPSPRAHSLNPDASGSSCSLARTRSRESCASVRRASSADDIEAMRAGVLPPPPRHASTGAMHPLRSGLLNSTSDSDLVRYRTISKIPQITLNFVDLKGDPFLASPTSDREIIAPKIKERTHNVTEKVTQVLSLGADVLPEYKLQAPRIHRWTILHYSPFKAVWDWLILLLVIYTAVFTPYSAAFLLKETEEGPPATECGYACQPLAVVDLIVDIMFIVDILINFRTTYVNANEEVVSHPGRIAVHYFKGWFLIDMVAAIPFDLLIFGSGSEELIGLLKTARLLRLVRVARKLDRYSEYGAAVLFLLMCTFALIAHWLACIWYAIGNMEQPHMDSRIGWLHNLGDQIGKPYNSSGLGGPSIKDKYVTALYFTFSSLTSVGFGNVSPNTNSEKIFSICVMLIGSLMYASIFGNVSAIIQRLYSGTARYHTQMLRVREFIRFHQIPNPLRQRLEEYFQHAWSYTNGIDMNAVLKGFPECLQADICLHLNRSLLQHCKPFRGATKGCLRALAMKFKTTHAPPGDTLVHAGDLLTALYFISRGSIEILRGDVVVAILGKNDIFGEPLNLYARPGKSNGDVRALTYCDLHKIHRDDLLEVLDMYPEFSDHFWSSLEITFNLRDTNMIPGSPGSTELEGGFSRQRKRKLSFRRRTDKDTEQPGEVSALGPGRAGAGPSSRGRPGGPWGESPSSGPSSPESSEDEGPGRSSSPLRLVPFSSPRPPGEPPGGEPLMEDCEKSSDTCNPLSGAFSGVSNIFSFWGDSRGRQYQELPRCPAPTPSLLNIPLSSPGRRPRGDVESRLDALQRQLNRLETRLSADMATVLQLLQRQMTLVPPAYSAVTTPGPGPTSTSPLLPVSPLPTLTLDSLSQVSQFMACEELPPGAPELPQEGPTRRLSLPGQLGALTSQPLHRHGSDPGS
row,SMILES,"hERG current change (%, negative = inhibition) at 10uM [%]"
1,COc1ccc(NC(=O)C2CCCN(S(=O)(=O)c3ccc(-n4cnnn4)cc3)C2)cc1 (centres unmarked),14.5
2,COc1cccc(NC(=O)CN(C)C(=O)CSCc2nc3scc(-c4cccs4)c3c(=O)[nH]2)c1,-16.2
3,Cc1c(Cl)cccc1NC(=S)N(Cc1ccco1)C(C)c1ccccn1 (centres unmarked),-11
4,O=C(CC1CCCC1)Nc1cccc(Br)c1,-3.4
5,COc1ccc(C)cc1NC1=C(Cl)C(=O)N(C2CCCCC2)C1=O,-15.7
6,Cn1cncc1C#Cc1ccc2cc(CCO)oc(=O)c2c1,-18.1
7,COc1ccc(C2/C=C\CN(C(=O)NC34CC5CC(CC(C5)C3)C4)CC(=O)N2Cc2ccc(F)cc2)cc1 (centres unmarked),-0.098
8,CCOC(=O)C1(CCOc2ccccc2)CCN(Cc2cnc(C)[nH]2)CC1,-48.3
9,CC(Sc1nnnn1C)C(=O)Nc1ccc(N2CCOCC2)cc1 (centres unmarked),13.1
10,COc1ccc(C(C)=O)cc1CSc1nnc(Nc2ccccc2C)s1,-17.9
11,COc1cccc(NC(=O)Cc2nnc(SCC(=O)NC3=NCCS3)n2C)c1,25.7
12,COc1cnn(-c2cc(Oc3ccc(C)cc3)ncn2)c(=O)c1Cl,2.74
13,CNc1nc2sc3c(c2c(=O)n1C)CC(C)(C)SC3,-16
14,CC1CCC(NC(=O)c2ccc(NS(=O)(=O)c3ccc4[nH]c(=O)[nH]c4c3)cc2)CC1 (centres unmarked),2.37
15,COC(=O)c1cc2c(cc1NC(=O)CSCCc1ccccn1)OCO2,7.82
16,CC1CCN(CC(=O)Nc2cc(C(F)(F)F)ccc2Cl)CC1,20.4
17,CN1CCN(C(=O)c2ccc(C3SCC(=O)N3Cc3ccco3)cc2)CC1 (centres unmarked),6.13
18,Cn1c(/C=C/c2ccccc2)nc2ccccc21,16.8
19,COc1ccc2ccccc2c1C(=O)/C=C\c1ccoc1,-31.6
20,Cc1c(C(=O)N(C)Cc2ccccc2)oc2ccc(S(=O)(=O)N3CCCC3)cc12,-11.8
21,Cc1nc2nc(NC(=O)c3ccco3)nn2c(C)c1Cl,-1.18
22,CCn1c(SCC(=O)N=Nc2c(O)[nH]c3ccccc23)nc2ccccc21,-11.9
23,COc1ccccc1CNC(=O)CN1C(=O)c2ccccc2S1(=O)=O,12.7

row,SMILES,"hERG current change (%, negative = inhibition) at 10uM [%]"
1,Cc1ccc(C(=O)CCC(=O)Nc2ncccc2C)cc1,6.86
2,Cc1ccc(C)c(Cn2c(=O)n(CCC(=O)NCc3ccco3)c(=O)c3sccc32)c1,7.18
3,CCc1sc(C(=O)Nc2cc(S(=O)(=O)N3CCOCC3)ccc2OC)cc1C,7.24
4,S=C(Nc1ccc(Nc2ccccc2)cc1)NC1CCCCCC1,4.19
5,COc1ccc(OC)c2c(=O)cc(C(=O)O)[nH]c12,13.3
6,CCc1cc2c(=O)[nH]c(-c3ccccn3)nc2s1,-4.89
7,COc1ccc(Br)c(C(=O)Nn2c(C)nc3ccccc3c2=O)c1,-7.27
8,COc1ccc(S(=O)(=O)Nc2ccccc2)cc1OC,-14.9
9,Cc1ccc(C(=O)NCC(=O)OCc2c(F)cccc2Cl)cc1,-0.578
10,COc1cc2c(cc1OC)C(C(=O)N(C)C1CCCCC1)C1CCCCN1C2=O (centres unmarked),10.2
11,O=C(N/N=C/c1ccc(O)c(O)c1)C1CC1,10.3
12,Cc1c(C(=O)N/N=C/c2ccc(Cl)cc2)[nH]c2ccc(Cl)cc12,12.4
13,Cc1cc(C)cc(N=C2SC(CC(=O)Nc3ccccc3)C(=O)N2CCN2CCOCC2)c1 (centres unmarked),-5.35
14,O=C(COc1ccc(Cl)cc1)NCc1nnc(SCC(=O)Nc2ccccc2F)o1,-2.16
15,COc1cc(CC(C#N)(CO)c2nc3ccccc3[nH]2)ccc1OC(F)F (centres unmarked),-18.9
16,COc1ccccc1C(O)P(=O)(OCC(C)C)c1ccc(N(C)C)cc1 (centres unmarked),-0.204
17,Cn1cc(CN2CCN(Cc3ccccc3)CC2)c(-c2cccc(Cl)c2)n1,-53
18,COc1ccc(CN(C)C(=O)c2cc(S(=O)(=O)N3CCCCCC3)ccc2OC)cc1OC,-16.9
19,CCC1CCCCN1CCCNC(=O)Cn1nc(C)n2nc(-c3ccccc3)cc2c1=O (centres unmarked),-45.2
20,Cc1ccc(C(C)C)c(OCCn2ccnc2C)c1.O=C(O)C(=O)O,-35.1
21,Cc1nn(C(=O)N2CCOCC2)c(C)c1CN1C(=O)c2ccccc2C1=O,2.27
22,Cc1c(NC(=O)c2ccc3ncccc3c2)c(=O)n(-c2ccccc2)n1C,27.3
23,CCCc1nnc(SCC(=O)Nc2ccc(OC)cc2)o1,28.8

row,SMILES,"hERG current change (%, negative = inhibition) at 10uM [%]"
1,CC(=O)c1c(C)n(C2CCCCC2)c2ccc(O)cc12,2.36
2,Cl.OCCCCNCc1ccc(OCc2ccccc2Cl)cc1,-15.9
3,CC1C/C(=N\NC(=S)NCc2ccccc2)CC(C)(C)C1 (centres unmarked),-8.07
4,CCn1c(SCC(=O)Nc2ccc3[nH]c(=O)[nH]c3c2)nc2ccccc21,11.8
5,COc1ccccc1C1NC(=O)CS1 (centres unmarked),-15.3
6,Cc1cccc(NC(=O)C2=C(O)c3ccccc3N(C)S2(=O)=O)c1,22.9
7,O=C(CCSc1nnc(-c2ccncc2)o1)Nc1ccccc1,1.1
8,O=C(Nc1ccc(F)c(Cl)c1)C1CCCC1,25.2
9,Fc1ccc(-c2cc(C(F)(F)F)nc(N3CCCCC3)n2)cc1,19.5
10,CN(CC(=O)Nc1ccc(Cl)cc1)CC(=O)Nc1cccc2ccccc12,-2.26
11,COc1ccc(-n2c(O)cnc2Nc2nc(C)cc(C)n2)cc1OC,4.1
12,CCOc1ccc(NS(=O)(=O)c2cc(C(=O)N3CCC3)ccc2Cl)cc1,-10
13,CC1CC(C)CN(C(=O)c2ccc3ncsc3c2)C1 (centres unmarked),8.74
14,CC(C)CC(OC(=O)c1nsc(Cl)c1Cl)C(=O)NCc1cccs1 (centres unmarked),7.86
15,COc1ccccc1NC(=O)CN1CCN(C(=O)c2ccco2)CC1,-22
16,Cn1cnnc1SCC(=O)NC(=O)NCc1ccccc1,10.3
17,COc1ccc(C2=CC(=O)C[C@H](c3ccc(F)cc3)C2)c(OC)c1,-1.06
18,CN(Cc1ccco1)S(=O)(=O)c1nnc(NC(=O)c2ccccc2Cl)s1,15
19,N#C/C(=C(/O)COC(=O)c1ccc(O)cc1)c1nc2ccccc2[nH]1,2.01
20,Cc1cccc(NC(=S)NCc2ccco2)c1C,12.6
21,COc1ccc(NC(=O)CSc2nnc(-c3cccnc3)o2)c(OC)c1,-15.4
22,COc1ccc(C(=O)NNC(=O)CNC(=O)C2CCCCC2)cc1,14
23,Cc1ccccc1OCC(=O)NCC(C)(C)N1CCOCC1,7.19

row,SMILES,"hERG current change (%, negative = inhibition) at 10uM [%]"
1,O=C(Cc1ccccc1)Nc1ccc(NC(=O)c2ccccc2)c(Cl)c1,17.5
2,C/C=C/C(=O)Nc1cccc(C2=NOC3(C2)C[C@@H](C(N)=O)N(C(=O)c2cc([N+](=O)[O-])cc([N+](=O)[O-])c2C)C3)c1 (some centres unmarked),11.3
3,O=C(Nc1ccccc1Br)c1ccc2nccnc2c1,7.27
4,COC(=O)c1ccc(S(=O)(=O)N2CCC(c3nc4ccccc4o3)CC2)cc1,1.99
5,COC(=O)Nc1sc2c(c1C(=O)NCc1ccco1)CCC2,-9.73
6,COc1ccc(N(C(=O)c2cccc(OC)c2OC)C2C=CS(=O)(=O)C2)cc1 (centres unmarked),-0.645
7,CCN(CC)CCCNC(=O)C1CCC(CNS(=O)(=O)c2c(C)cc(C)cc2C)CC1 (centres unmarked),-13.5
8,O=C(c1ccccc1F)c1cn(Cc2ccc(F)cc2)c2ccccc12,1.38
9,COc1ccc(CCNC(=O)CCNS(=O)(=O)c2cccc3nonc23)cc1OC,-0.148
10,Cn1c(=O)[nH]c(=O)c2c1nc(SCC(O)CO)n2CCCc1ccccc1 (centres unmarked),15.1
11,O=C(O)CCNc1nc(C(F)(F)F)nc2ccccc12,18.2
12,CCOc1ccc(CC(=O)Nc2c(C(=O)Nc3ccccc3)oc3ccccc23)cc1OCC,-7.78
13,COc1ccc(-c2c(C#Cc3ccsc3)c3cc(Br)ccc3n2C)cc1,0.881
14,S=c1[nH]nc(-c2ccc(Br)o2)n1Cc1ccccc1,5.02
15,CCC(=O)N1CCc2cc(S(=O)(=O)NC(Cc3ccccc3)C(=O)O)ccc21 (centres unmarked),19.6
16,COC(=O)c1sc(NC(=S)NNC(=O)c2c(Br)c(C)nn2C)c(C(=O)OC)c1C,24.8
17,Cc1cccc(-c2n[nH]c(=S)n2Cc2ccccc2)c1,-2.87
18,COc1ccc(CCNC(=O)c2c(C)cc(=O)oc2C)cc1OC,2.89
19,CN(C(=O)COC(=O)c1ccccc1OCc1ccc(F)cc1)C1CCS(=O)(=O)C1 (centres unmarked),-13.3
20,Cc1cc(=O)[nH]c(SCc2cccc(F)c2)n1,20.6
